Measured values as given in PubChem BioAssay AID1963576 (National Center for Advancing Translational Sciences (NCATS), 2024).
The campaign covered roughly 46,000 compounds. About 60 (0.1%) were called active. Another 3% or so got no clear call; they are omitted. Calls come from the whole dose curve; as a rule, active = well fitted inhibition curve with a large enough effect; inconclusive = small, poorly fitted or top-dose-only effect; inactive = no such curve, though single readings can be large or run the other way. Some of the results follow.

assay: Primary qHTS assay for Inhibitors of ovarian cancer metastasis using an organotypic tumor microenvironment (TME) model.; note: nearly all actives have a fitted effect of over 65% in size;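 for activity change, negative = inhibition: plate controls were DMSO wells for no effect and tomatine positive control wells for full effect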; details: SKOV3ip1-GFP adhesion/invasion on 3D omental model, fluorescence; series mostly up to 45.8 µM; activity change, negative = inhibition: at the top concentration
How it was run: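 A 3D layer of primary human omental fibroblasts, mesothelial cells, fibronectin and collagen I, grown 48 hr, received SKOV3ip1-GFP cells in serum-free medium plus compounds at 0.36-46 umol/L. After 2 hr RT and 16 hr 37 C, fixed adherent GFP cells were counted; normalized to DMSO and tomatine.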

Activity change, negative = inhibition, inactive:
CCOC(=O)c1ccccc1NC(=O)NCc1c(-n2cccc2)sc2c1CCCC2 4.22%
CCCCCCCCCCCCc1ccc(S(=O)(=O)Nc2nncs2)cc1 -13.2%
Cc1c(CNC(C)CCc2ccccc2)c(C(=O)O)c(C)n1Cc1ccc(F)cc1 (stereo not drawn) -1.77%
COc1ccc(NC(=O)CSc2oc(-c3ccco3)nc2S(=O)(=O)c2ccc(C)cc2)c(OC)c1 1.11%
Cc1ccc(C)c(NC(=O)CSc2nnc3[nH]c(=O)cc(-c4ccccc4)n23)c1 2.35%
CC(=O)Nc1ccc(NC(=O)c2cc(CN3CCCC3)on2)cc1 12.2%
Cc1ccc(CN2CCCn3nc(C(=O)NCc4ccc(N(C)C)cc4)cc3C2=O)cc1 -14.2%
COc1ccc(CCNc2nc3c(-c4cccc(C(F)(F)F)c4)nnn3c3ccccc23)cc1OC 6.19%
O=C(Nc1ccccc1-c1nc2ccccc2s1)c1ccc(F)cc1 4.28%
CCC(=O)N1CCc2cc(S(=O)(=O)NCCC(=O)Nc3ccc(CC)cc3)ccc21 1.17%
CC(C)CNC(=O)Nc1cc(C(=O)NCc2ccc(C(C)C)cc2)ccc1N1CCCC1 2.29%
CCOc1ccc(NC(=O)c2cc3cc(C)ccc3n2C)cc1 7.66%
CC1CCN(c2nc(-c3ccc(C(C)(C)C)cc3)nc3ccccc23)CC1 -5.26%
COc1ccc(CCNC(=O)c2c(O)nc3ccccn3c2=O)cc1OC -3.82%
CCOc1ccc2nc(N3CCCC(C(=O)Nc4ccc(OC)cc4)C3)sc2c1 (stereo not drawn) 36.9%
O=C(CC1N=C2c3ccccc3N=C(SCC(=O)Nc3ccc(F)cc3)N2C1=O)NCc1ccco1 (stereo not drawn) 2.81%
CCOc1ccc(NC(=O)c2oc3ccccc3c2NC(=O)C(C)(C)C)cc1 15.5%
COc1ccccc1NC(=O)CSc1oc(-c2ccco2)nc1S(=O)(=O)c1ccc(C)cc1 -3.01%
CCc1nn2c(=O)cc(COC(=O)c3ccc(NC(=O)COc4ccccc4C)cc3)nc2s1 10.7%
Cc1ccc(C(=O)Nc2nnc(S(=O)(=O)N(C)Cc3ccc(Cl)cc3)s2)cc1 -1.81%
COc1cc(Nc2ncc3c(n2)CCN(Cc2ccc(OC(C)C)c(OC)c2)C3)cc(OC)c1 -13.9%
Cc1ccccc1OC(=O)c1cc(-c2ccc3c(c2)OCCO3)on1 5.41%
COc1ccc(NC(=O)C2CCN(C3=NS(=O)(=O)C(c4ccc(C)c(C)c4)=C3C)CC2)c(OC)c1 0.159%
Cc1ccc(NC(=O)N2CC3CCCN3c3ccccc32)cc1Cl (stereo not drawn) -23.9%
CCN1CCN(c2nnc(-n3cccc3C(=O)NCc3ccccc3OC)s2)CC1 -7.07%
O=C(Cn1ncc2c3ccccc3n(Cc3ccccc3F)c2c1=O)N1CCCCCC1 1.27%
O=C(c1noc2c1CCCCC2)N1CCN(c2cccc(Cl)c2)CC1 2.96%
CCc1ccccc1NC(=O)Cn1nnc2sc3c(c2c1=O)CCC(C(C)(C)C)C3 (stereo not drawn) 4.09%
O=C(c1cc2ccc3cccnc3c2[nH]1)N1CCCCC1 2.15%
Cc1ccc(C)c(NC(=O)Cc2coc3cc(C)cc(C)c23)c1 0.735%
O=C(NCCc1csc(-c2cccc(F)c2)n1)C(=O)Nc1cc(F)ccc1F 5.26%
Cc1cccc(NC(=O)CSc2ccc(-c3sc(-c4ccccc4)nc3C)nn2)c1C 2.83%
CC(=O)c1ccc(N2CCN(C(=O)c3cc(S(=O)(=O)N4CCCCCC4)cn3C)CC2)cc1 17.3%
CC(=O)Nc1cccc(NC(=O)CSc2nccn2Cc2ccc3c(c2)OCO3)c1 -10.3%
CCOC(=O)c1cc2c(=O)n3ccccc3nc2n(CC2CCCO2)c1=NC(=O)c1ccccc1Br (stereo not drawn) -17.6%
Cc1cc(C(=O)Nc2c(C)cccc2C)n(-c2ccccc2)n1 3.37%
CCCOc1cccc(C2c3c(oc4ccc(F)cc4c3=O)C(=O)N2CCCN2CCOCC2)c1 (stereo not drawn) 43.1%
CC(C)c1nn2c(=O)cc(COC(=O)C3CCCCC3)nc2s1 -11.5%
Cc1cc(Br)cc(C)c1NC(=O)c1sc2ncn(Cc3cccc(F)c3)c(=O)c2c1C 5.82%
CC1CCN(C(=O)c2cc3c(=O)n(C)c4cc(Cl)ccc4c3s2)CC1 -24.5%
CCCOc1ccc(-c2nonc2NC(=O)c2ccco2)cc1OCCC 1.31%
O=C(Cn1c(-c2cccs2)cc2ccccc21)N1CCN(c2ccc(Cl)cc2)CC1 -0.328%
CCOc1ccc(C2C(C(=O)Nc3ccccc3)=C(C)Nc3nc(-c4ccccc4)nn32)cc1OC (stereo not drawn) -0.395%
Cc1ccc(NC(=O)Cn2c(=O)c3ccc(Cl)cc3n3nncc23)cc1 -22.3%
CCNC(=O)c1ccc(C)c(-n2c(C)nc3cccnc32)c1 3.56%
Cc1cc(C)n(CCc2nc3c4ccccc4nc(SCc4ccc(F)cc4)n3n2)n1 1.33%
O=c1c2cnn(-c3ccc(F)cc3)c2ncn1Cc1ccccc1Cl 4.7%
COc1ccc(OC)c(NC(=O)C(C)n2c(=O)cc(C)c3c(C)nn(-c4ccccc4)c32)c1 (stereo not drawn) 3.69%
COc1ccc(-c2cn3c(n2)sc2cc(C(=O)NCCC4=CCCCC4)ccc23)cc1 9.12%
CCc1ccc(N2CC(c3nnc(NC(=O)c4ccco4)s3)CC2=O)cc1 (stereo not drawn) -0.164%
N#Cc1ccccc1NC(=O)CSc1nc(-c2ccccc2)cc(C(F)(F)F)c1C#N -1.57%
COc1ccc(C)cc1NC(c1nnc(-c2ccccc2)o1)c1ccc(F)cc1Cl (stereo not drawn) 5.7%
CCOC(=O)c1c(NC(=O)c2ccc(C)cc2)sc2c1CCCCC2 1.85%
Cc1c(C(=O)Nc2ccc(F)cc2F)oc2c1-c1nn(Cc3c(F)cccc3Cl)cc1CC2 -5.21%
O=C(NC1CC(=O)N(c2ccc(F)cc2)C1)C1CCCC1 (stereo not drawn) 27.8%
Cc1ccc(Cc2cnc(NC(=O)c3ccc4c(c3)CC(c3ccccc3)OC4=O)s2)cc1 (stereo not drawn) -14.3%
Cc1ccc(Nc2nc(-c3ccccc3)nc3ccccc23)cc1 1.02%
COc1cc(Cl)c(C)cc1NC(=O)c1cc(S(=O)(=O)N2CCCC2)ccc1F 3.51%
Cc1ccc(-n2cnc3cc(C(=O)NCCC4=CCCCC4)ccc32)c(C)c1 2.9%
Cc1cc(NC(=O)c2ccccc2F)ccc1-c1nc2ccccc2s1 2.6%
CCc1ccc(NC(=O)c2sc(-n3nc(C)c(CCC(C)C)c3C)nc2C)cc1 3.03%
Cc1cccc(C)c1OCC(=O)N(Cc1ccccc1F)C1CCS(=O)(=O)C1 (stereo not drawn) 9.05%
COc1ccc(C(=O)N2CC(=O)Nc3ccc(Br)cc3C2c2ccc(F)cc2)cc1OC (stereo not drawn) -3.72%
CCOC(=O)c1c(NC(=O)/C(C#N)=C/c2ccc(OC)cc2)sc2c1CCC2 -5.71%
CCOC(=O)Cc1ccc(NC(=O)N(Cc2ccc(OC)cc2)C2CCN(C(C)=O)CC2)cc1 15.9%
CCOC(=O)c1c(C)[nH]c(CCC(=O)NCc2ccc(OC)c(OC)c2)c1C -4.96%
CCn1c2ccccc2c2nnc(N3CCN(c4cccc(Cl)c4)CC3)nc21 13.3%
COc1ccc(-c2noc(CCCC(=O)Nc3cccc(Cl)c3C)n2)cc1 0.235%
Cc1ccc(CN2CCSc3ccc(C(=O)NCc4ccc(OC(C)C)cc4)cc32)cc1 3.47%
Cc1ccc(N2CCn3c2nc2c3c(=O)n(C/C=C/c3ccccc3)c(=O)n2C)cc1C -6.58%
CSc1nn(CC(=O)Nc2ccccc2F)c(N)c1S(=O)(=O)c1ccccc1 -3.56%
CC(Cc1ccc(O)c(O)c1)(NN)C(=O)O (stereo not drawn) 2.1%
COCc1cc(C)nc2sc(C(=O)Nc3ccccc3O)c(N)c12 16.2%
COc1ccc(C2CC(=O)c3c([nH]c(C(=O)OCc4ccccc4)c3C)C2)cc1 (stereo not drawn) -29.7%
Cc1ccc(OCCn2cc(C(=O)c3cccs3)c3ccccc32)cc1 -9.06%
COc1cccc(/C=C/c2onc(C)c2S(=O)(=O)N2CCC(C(=O)N3CCCCC3)CC2)c1 2.04%
COc1ccccc1-c1c(C)nn2c(-c3ccccc3)cc(-c3ccccc3)nc12 -10%
COc1ccc(CNC(=O)Cn2c(=O)nc(-c3ccccc3)c3cc(Cl)ccc32)cc1OC -4.86%

outcome, inactive:
CN(C)S(=O)(=O)c1ccc2c(c1)N(CC(=O)Nc1cccc(C(F)(F)F)c1)C(=O)CS2
CCOc1ccc(NC(=O)Cn2c(=O)n(CC3CCC(C(=O)NCCc4ccccc4)CC3)c(=O)c3ccccc32)cc1 (stereo not drawn)
COc1ccccc1C(=O)Nc1cccc(C(=O)OCc2cc(=O)n3c4c(sc3n2)CCCC4)c1
COc1cc(C(=O)NC(c2ccccc2Cl)c2cc(Cl)c3cccnc3c2O)cc(OC)c1OC (stereo not drawn)
Clc1ccc(-c2cc3ncc4c(n3n2)-c2ccccc2OC4)cc1
O=C(CSc1nc2ccsc2c(=O)n1-c1ccc(Cl)cc1)NCc1ccc(Cl)cc1
COc1ccc(NC(=O)c2csnn2)cc1Cl
COc1ccc(C)cc1NS(=O)(=O)c1cnc(N)nc1
COc1cccc(CNC(=O)C2CCN(S(=O)(=O)c3c(C)noc3/C=C/c3cccs3)CC2)c1
CCOC(=O)c1sc2ncn(CC(=O)Nc3cc(Cl)ccc3C)c(=O)c2c1C
COCCCNC(=O)c1ccc(Cn2c(SCc3ccc(F)cc3)nc3cccnc32)cc1
O=C(OCc1cc(=O)n2nc(-c3cccs3)sc2n1)c1cccc(F)c1
Cc1ccc(CN(Cc2ccco2)C(=O)c2ccccc2Br)o1
Cc1nc(-c2ccc(S(=O)(=O)N3CCN(c4cccc(C(F)(F)F)c4)CC3)cc2)co1
COc1cccc(-c2csc(-c3c(N)c(C(=O)c4ccc5c(c4)OCO5)n4ccccc34)n2)c1
Cc1ccc(CNC(=O)c2c[nH]c3ccc(S(=O)(=O)N4CCOCC4)cc3c2=O)cc1
CC(=O)c1ccc(S(=O)(=O)Nc2ccc(-c3cn4c(C)csc4n3)cc2)cc1
COc1ccc(S(=O)(=O)N2CCC(N3CCN(Cc4ccccc4)C(=O)C3=O)CC2)cc1
COCCCNC(=O)Cn1c(=O)n(-c2cccc(C)c2)c(=O)c2c1c1cc(C)ccc1n2C
CCOc1ccc(C2=NC(c3ccncc3)=Nc3ccc(C)cc3N2)cc1OCC
